The target in the experiment is T1, human BCMA (B-cell maturation antigen) on cells (human, UniProt Q02223 1-184).
T1 construct: whole, on cells; also called hBCMA; hBCMA/HEK293 cell line
T1 sequence (looked up): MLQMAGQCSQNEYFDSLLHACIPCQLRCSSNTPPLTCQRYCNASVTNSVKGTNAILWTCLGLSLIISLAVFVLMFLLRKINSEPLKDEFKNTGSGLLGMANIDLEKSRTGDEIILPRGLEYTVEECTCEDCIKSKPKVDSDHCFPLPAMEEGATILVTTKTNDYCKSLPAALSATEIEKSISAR
The experiment can be described thus: flow cytometry, hBCMA-expressing HEK293 against parental HEK293 cells. As to the method: Binding of exemplary scFv clones to hBMCA-expressing HEK293 cells was assessed and binding was compared to parental HEK293 cells.

Here are results for one molecule from patent US20200392236A1 (JUNO THERAPEUTICS, published 2020).

B1: BCMA-19 anti-BCMA scFv (scFv)
scFv: [about 100 residues not spelt out]DGGDVWGQGTTVTVSSGGGGSGGGGSGGGGSQAVLTQPASVSGSPGQSITISCTGTSSDVGDYNYVAWYQQHPGKDPKLMIFEVINRPSGVSDRFSGSKSGNTASLDISGLQPEDEADYYCISYSRGSTPYVIGTGTKVTVL
notes: VH-(G4S)3-VL scFv
Take B1: the “fold selective binding (hBCMA-expressing HEK293 over parental HEK293 cells)” value amounted to 4.2 fold.
